Laboratory results taken from the supplement of paper PMC3656093.
± gives the standard deviation of the averaged measurements. In all, about 1,900 compounds were measured (“CD40L-induced NF-kB luciferase activity, plate-corrected, relative to DMSO (0) and IKK inhibitor VII (-100) controls”: median about 0.032, lowest 2% from about -26 on). The list shows a part of the results.

system: BL2-NFkB-Luc; assay: CD40L-induced NF-kB luciferase activity, plate-corrected, relative to DMSO (0) and IKK inhibitor VII (-100) controls (% normalized activity); higher = more NF-kB reporter activity (less inhibition); conditions: 9.4 µM; stimulus: tCD40L 64 ng/ml; 4.5 h
Procedure: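 BL2 B cells with a stable NF-kB response-element luciferase reporter (BL2-NFkB-Luc), 384-well. Cells were pre-incubated with compound at 9.4 uM for 1 h at 37 C, then stimulated with 64 ng/ml trimerized CD40L for 4.5 h; luciferase was read with Steady-Glo. Signal was normalised per plate in Genedata (median DMSO neutral control = 0, median IKK inhibitor VII at 50 uM = -100) with Assay Median plate-pattern correction; duplicate plates.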

SMILES	CD40L-induced NF-kB luciferase activity
COc1cc(-c2nnc(-c3cccs3)o2)cc(OC)c1OC	7.78 ± 8.6
NC[C@H]1O[C@H](O[C@H]2[C@H](O)[C@@H](O[C@H]3O[C@H](CO)[C@@H](O)[C@H](N)[C@H]3O)[C@H](N)C[C@@H]2N)[C@H](N)C[C@@H]1O	2.99 ± 2.8
CC1(C)Cc2nc3sc4c(=O)n(CC(N)=O)cnc4c3cc2CO1	-5.2 ± 5.3
CC(C)C1Cc2[nH]c(=O)c(C(=O)O)cc2CO1 (configuration not stated)	-5.76 ± 3.3
COc1cc2c(cc1OC)CN(Cc1ccc(C)s1)CC2	-4.91 ± 5.6
Cc1[nH]c2ccccc2c1C(=O)CN1CCCC1	-3.4 ± 5.8
NC12CC3CC(C1)CC(O)(C3)C2	-3.49 ± 3
Cc1ccc(C(=O)COC(=O)c2cnccn2)cc1[N+](=O)[O-]	0.896 ± 2.4
COc1cc(OC)cc(C(=O)N[C@@H](CCSC)c2nc3ccccc3[nH]2)c1	-3.07 ± 0.071
Cc1cc(C)nc(NS(=O)(=O)c2ccc(N)cc2)n1	-1.97 ± 1
O=C(c1ccc(Cl)cc1)C1CCCN(C(=O)/C=C/c2ccccn2)C1 (configuration not stated)	-0.905 ± 1.6
CC1(C)O[C@@H]2C[C@H]3[C@@H]4C[C@H](F)C5=CC(=O)C=C[C@]5(C)[C@@]4(F)[C@@H](O)C[C@]3(C)[C@]2(C(=O)CO)O1	-23.7 ± 1.8
CCOC(=O)C1=C(N)Oc2c(c(=O)[nH]c3ccccc23)C1c1ccccc1 (configuration not stated)	0.396 ± 1.2
COc1ccc(/C=C2\CCc3ccccc3C2=O)c(OC)c1OC	9.96 ± 2.8
COc1ccc(CCNC(=O)CC(c2ccccc2)c2cccc(C)c2O)cc1OC (configuration not stated)	-6.91 ± 1.1
CC#C[C@]1(O)CC[C@H]2[C@@H]3CCC4=CC(=O)CCC4=C3[C@@H](c3ccc(N(C)C)cc3)C[C@@]21C	-7.39 ± 1.2
CC(=O)OCC(=O)C1=CCC2C3CCC4=CC(=O)C=CC4(C)C3(F)C(OC(C)=O)CC12C (configuration not stated)	-4.87 ± 4.6
COc1ccc(Cl)cc1C(=O)NCCc1ccc(S(=O)(=O)NC(=O)NC2CCCCC2)cc1	-7.56 ± 16
COc1cc(CNCCc2c[nH]c3ccccc23)cc(Cl)c1OCC(N)=O	-2.87 ± 1.6
FC(F)(F)c1ccc(-c2noc(CN3CCCN(C4CCCCC4)CC3)n2)cc1	3.08 ± 0.91
CC(C)N(C(=O)Cc1ccccc1[N+](=O)[O-])C(C)C	2.77 ± 2.3
COc1cc2[nH]c3c(=O)n(CCN4CCOCC4)cnc3c2cc1OC	-2.05 ± 1.9
CC(C)Oc1ccc2c(=O)c(-c3ccccc3)coc2c1	0.574 ± 3.5
CC(=O)Nc1nnc(S(N)(=O)=O)s1	2.43 ± 5
COC(=O)c1ccc(CC(=O)c2ccc(O)cc2O)o1	1.24 ± 0.47
O=C(O)c1ccc(N2C(=O)/C(=C\c3ccccc3)N=C2c2ccccc2)cc1	0.856 ± 0.066

SMILES	CD40L-induced NF-kB luciferase activity
CC(/C=C1\SC(=O)N(CCCC(=O)O)C1=O)=C\c1ccccc1	-84.08 ± 0.44
COc1ccc(C2OC(=O)Cc3cc(OC)c(OC)cc32)cc1 (configuration not stated)	4.33 ± 0.061
Cc1ccc(C(=O)Nc2ccc(O)cc2C(=O)O)cc1C	-0.921 ± 1.3
CCc1c(C)c2ccc(OCC(=O)OC(C)C)c(C)c2oc1=O	7.79 ± 0.47
COc1ccc(C(=O)[C@H]2[C@H]3C(=O)N(c4ccccc4)C(=O)[C@H]3C3C=CC=NN32)cc1 (some centres not stated)	-1.84 ± 0.34
CC(C)[C@H](NC(=O)[C@@H]1CSCN1C(=O)OC(C)(C)C)C(=O)NCC1CCC(C(=O)O)CC1 (some centres not stated)	0.649 ± 2.5
Cc1ccc2c(c1)c1c3n2CCCN(Cc2ccccc2)C3CCC1 (configuration not stated)	1.88 ± 0.99
Cc1ccc2[nH]c3c(=O)n(CCCN4CCN(C)CC4)cnc3c2c1	5.32 ± 0.32
C[C@@H]1CCC[C@H](C)N1NC(=O)c1ccc(Cl)c(S(N)(=O)=O)c1	-0.334 ± 4
CC(C)C(CCN1C(=O)CCC1=O)C1CCOC(C)(C)C1 (configuration not stated)	-1.38 ± 6.7
COCC(C)NC(=O)c1ccc(CN2CCc3ccccc3C2)cc1 (configuration not stated)	7.18 ± 5
CC1(C)c2ccccc2N2CC(=O)N(CC(N)=O)C21C (configuration not stated)	1.75 ± 1.9
COC(=O)c1ccccc1OCCOCCOc1cccc2ccc(C)nc12	-1.72 ± 4.2
O=C(CCCN1C(=O)/C(=C\c2cccc(Br)c2)SC1=S)Nc1cccnc1	-2.47 ± 4.1
C[N+](C)(C)CCCC(=O)c1ccc2c(c1)OCO2	3.1 ± 5.4
OC[C@@H](O)[C@@H](O[C@H]1O[C@H](CO)[C@@H](O)[C@H](O)[C@H]1O)[C@H](O)[C@@H](O)CO	-3.32 ± 1.9
CCN(CC)CCNC(=O)c1ccc(N)cc1	-3.57 ± 7
COc1cc2cc(C)nc(Cc3cccc4ccccc34)c2cc1OC	-4.08 ± 6
CC(=O)C1=C(O)C(=O)N(Cc2cccnc2)C1c1ccc(C(C)C)cc1 (configuration not stated)	1.11 ± 2.3
COc1ccc(S(=O)(=O)N2CCN(C(=O)COc3ccc4c(C)cc(=O)oc4c3)CC2)cc1	-2.3 ± 9.4
CCOC(=O)Nc1c[n+](N2CCOCC2)no1	4.88 ± 2.3
COc1cc(/C=C/C(=O)N2CCCC2)cc(OC)c1OC	-14 ± 13
CC1(C)CC(C(CC(=O)N2CCCC2)Cc2ccccc2)CCO1 (configuration not stated)	3.46 ± 2.7
O=C(O)C1CCN(C(=O)COc2ccc3c4c(c(=O)oc3c2)CCC4)CC1	-3.71 ± 1.6
O=C(NCC1CCCO1)c1ccc(OC2CCN(C(=O)C3CC3)CC2)cc1 (configuration not stated)	-0.827 ± 3.7
OC(COCc1ccccc1)CN1CCN(Cc2ccc3c(c2)OCO3)CC1 (configuration not stated)	-0.97 ± 0.41
